Laboratory results taken from publication PMC6919601, “Identification of Plasmodium dipeptidyl aminopeptidase allosteric inhibitors by high throughput screening” (PLoS ONE, 2019).
Hit rate of the full screen: of about 110,000 compounds, about 230 (0.21%) showed an effect of 50% or more. The list shows a part of the results.

target: DPAP1 (Plasmodium falciparum, UniProt Q8IIJ9); assay: primary screen, percent inhibition; read by cleavage of a fluorogenic dipeptide substrate; higher = more effect of the substance; set-up: species or system P. falciparum D10 trophozoite lysates; single well
Sequence (Q8IIJ9 whole entry, looked up): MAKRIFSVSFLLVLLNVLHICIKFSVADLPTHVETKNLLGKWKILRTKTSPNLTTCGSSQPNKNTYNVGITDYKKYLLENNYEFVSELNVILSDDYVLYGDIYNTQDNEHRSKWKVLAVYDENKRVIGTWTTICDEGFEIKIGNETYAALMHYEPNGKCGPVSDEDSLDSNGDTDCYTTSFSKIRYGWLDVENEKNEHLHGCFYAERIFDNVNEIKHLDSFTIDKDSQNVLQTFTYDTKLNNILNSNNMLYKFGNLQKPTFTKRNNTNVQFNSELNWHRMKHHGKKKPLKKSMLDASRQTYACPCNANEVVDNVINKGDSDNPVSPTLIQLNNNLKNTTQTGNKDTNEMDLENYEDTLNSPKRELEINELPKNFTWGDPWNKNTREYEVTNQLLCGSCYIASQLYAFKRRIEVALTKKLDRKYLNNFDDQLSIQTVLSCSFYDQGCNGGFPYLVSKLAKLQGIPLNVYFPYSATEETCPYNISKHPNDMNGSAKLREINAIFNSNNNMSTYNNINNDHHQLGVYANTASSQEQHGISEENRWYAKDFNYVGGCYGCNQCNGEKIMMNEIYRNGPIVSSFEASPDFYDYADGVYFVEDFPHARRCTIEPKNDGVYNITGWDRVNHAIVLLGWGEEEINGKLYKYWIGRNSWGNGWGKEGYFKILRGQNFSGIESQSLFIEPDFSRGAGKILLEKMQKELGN
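Also: 30 min substrate incubation versus DMSO and 10 µM JCP410 controls.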

Compound | % Inhibition @ 10 uM [%]
O=C(NCc1ccc(Cl)cc1)c1cccc2c1C(=O)N(C1CCCCC1)C2 | 0.708
Cc1nn(C)cc1CN(C)C(=O)c1cc2nc(-c3ccccc3)cc(C(F)(F)F)n2n1 | 4.59
Cc1ccccc1CNC(=O)CN(c1ccccc1Cl)S(=O)(=O)c1ccccc1 | 5.29
S=C1NCN(Cc2ccccc2)CN1C1CCCCC1 | -5.62
CN(C)CCCNc1ncnc2c1c(-c1ccccc1)cn2-c1ccc(F)cc1 | 6.44
CCc1ccccc1NC(=O)CSCc1ccccc1 | -3.11
O=C(COc1ccc(Cl)cc1Cl)NC(Cc1ccccc1)C(=O)O (stereo not shown) | -2.66
COc1ccc(CCNS(=O)(=O)c2ccc3[nH]c4c(c3c2)CCCC4)cc1OC | -3.88
CCC(C)NC(=O)c1cnn(-c2cccc(C)c2)c1-n1cccc1 (stereo not shown) | -4.36
CCN1C(=O)N/C(=C/c2cccc(OC)c2OC(C)C)C1=O | -0.473
Cn1c(=O)n(Cc2cccc(Cl)c2)c(=O)c2c1ncn2Cc1ccccc1 | -2.28
CCc1nn(CC(=O)NC(COc2ccc(OC)cc2)C(C)C)c(=O)c2ccccc12 (stereo not shown) | -2.84
Cc1cccc(C(=O)Nc2ccc(S(N)(=O)=O)cc2)c1 | 9.59
CCOC(=O)CN1CCC(Cc2ccccc2)CC1 | -2.32
CC1=C(C(=O)Nc2ccc(Cl)cc2)C(c2cccs2)NC(S)=N1 (stereo not shown) | -2.97
COc1ccc(NC(=O)COc2ccccc2)cc1NC(=O)c1ccco1 | -1.63
CCCCOc1ccc(C(=O)Nc2ccc(N3CCN(S(C)(=O)=O)CC3)cc2)cc1 | -4.12
Cc1cc(C)n2nc(CNS(=O)(=O)c3ccc(F)c(C)c3)nc2n1 | -3.96
Cc1cc(C)cc(NC(=O)Cn2cnc3ccccc3c2=O)c1 | 1.96
N#Cc1ccc(S(=O)(=O)N2CCC(n3c(O)nc4ccccc43)CC2)cc1 | -0.671
CCOC(=O)C1=C(C)N=c2s/c(=C/c3cccs3)c(=O)n2C1c1ccccc1 (stereo not shown) | 12.9
O=C(NCc1cccs1)C1CCCN(c2nc3ccccc3o2)C1 (stereo not shown) | 5.23
COc1cccc(-c2ccc(C#N)c(SCC(=O)Nc3ccc(C(C)=O)cc3)n2)c1 | -0.68
O=C(O)c1ccc(NC(=O)c2ccc(F)c(S(=O)(=O)N3CCOCC3)c2)cc1 | -2.99
Cn1cccc1Cc1nnc(SCC(=O)NCc2ccc3c(c2)OCO3)n1CCc1ccccc1 | -7.65

Compound | % Inhibition @ 10 uM [%]
CCCCc1cc(CN2CCCCC2)[nH]n1 | 1.9
Cc1ccc(CN2CCN(CC(=O)NCCc3ccc(Cl)cc3)C2=O)cc1 | 0.675
Nc1c(C(=O)c2ccc(Br)cc2)sc2nccc(Nc3ccccc3)c12 | 0.774
Cc1c(C(=O)O)oc2ccc3c(c12)C(O)CC(C)(C)O3 (stereo not shown) | -1.75
O=C(Nc1ccc(F)cc1F)c1ccccc1Br | -5.11
COc1cccc(C(=O)NC2(C(F)(F)F)NC(=O)N(Cc3ccccc3)C2=O)c1 (stereo not shown) | -3.39
CCOC(=O)C1=CN(Cc2ccc(F)cc2)C=C(C(=O)OCC)C1c1cc(OC)c(OC)cc1OC | -3.23
COc1ccc(Cl)cc1NC(=O)C1=C(C)NC(=O)NC1c1ccccc1 (stereo not shown) | -0.598
Cc1ccc(Cl)cc1NC(=O)CC(C(=O)O)N1CCNCC1 (stereo not shown) | 3.58
O=C(CCCC(=O)c1ccccc1)NCCc1ccccc1F | -3.21
COc1cc(CN2CCCN(C)CC2)cc(OC)c1 | -1.62
CC(C)C[C@H](Nc1nc(-c2ccncc2)cs1)C(=O)NCC#N | -3.04
O=C1NCCN1Cc1ccc(F)cc1Cl | 3.23
COc1cc2nc(S)n3nc(C(C)Oc4ccc(Br)cc4)nc3c2cc1OC (stereo not shown) | -0.499
CCCCCOC(=O)C1=C(C)N(C)C(=O)NC1c1ccccc1Cl (stereo not shown) | 0.736
Cc1ccc(CNc2oc(COc3ccccc3F)nc2C#N)cc1 | 0.726
Cc1[nH]nc2c1C(c1ccc(O)cc1)NC2=O (stereo not shown) | -5.22
COc1cccc(C(=O)N2CCN(Cc3ccccc3Br)CC2)c1 | 2.3
CC(CNC(=O)c1cc2c(s1)CS(=O)(=O)C2)c1ccccc1 (stereo not shown) | -5.54
Fc1ccc(CN2CCN(c3ccccc3)CC2)cc1Br | -1.86
CC1CCN(CC(C)C(=O)c2ccccc2)CC1 (stereo not shown) | -1.82
CCN(CC)C(=O)c1cc(-c2ccccc2OC)on1 | -2.65
CC(C)c1ccc(NC(=O)/C=C/c2ccccc2)cc1 | -0.771
COCCNC(=O)Cn1nc(C)c2sc3ccccc3c2c1=O | -4.26
O=[N+]([O-])c1ccc(CNC2CCCCCC2)cc1 | -4.18

Compound | % Inhibition @ 10 uM [%]
Cn1c2c(c(=O)n(C)c1=O)C(c1cc(Br)ccc1F)C1=C(O)c3ccccc3C1=N2 (stereo not shown) | -2.24
FC(F)(F)c1ccc2nnc(-c3c(Cl)cccc3Cl)n2c1 | 0.561
O=C(Cn1nc(Cc2ccncc2)c2ccccc2c1=O)Nc1cc(-c2cccc(Cl)c2)no1 | 3.59
O=C(C[n+]1ccccc1)Nc1nc2ccccc2s1 | 6.84
CC[C@H](NC(=O)[C@H](Cc1ccccc1)NC(=O)N1CCOCC1)C(=O)C(=O)NCc1ccccc1 | 1.35
OC1(c2ccc(Cl)cc2)CCN(Cc2ccccc2F)CC1 | -0.0648
COc1ccc(C(=O)c2sc3nc(C)cc(C)c3c2N)cc1OC | -4.68
CC(NC(=O)c1cc([N+](=O)[O-])ccc1Cl)c1ccccc1 (stereo not shown) | -1.48
CCNC(=S)N1CCN(CC/N=C2/C=C(O)CC(C)(C)C2)CC1 | 1.37
Cc1ccc(CNC(=O)Cn2cc(C(=O)c3ccc(C)cc3)c(=O)c3ccc(C)nc32)cc1 | -1.16
O=[N+]([O-])c1ccccc1CNC1C2CC3CC(C2)CC1C3 (stereo not shown) | -1.56
Sc1nnc(-c2cccnc2)o1 | -1.46
C=CCC1NC2(CCCCC2)Cc2cc(OC)c(OC)cc21 (stereo not shown) | 1.43
O=C(/C=C/c1cccc([N+](=O)[O-])c1)Nc1cccc(C(F)(F)F)c1 | -3.44
COc1cccc(-c2cc(C(=O)N3CCOCC3)no2)c1 | -3.36
CCN(CC)CCN(C)Cc1cccc2ccccc12 | -2.21
O=C(NCCc1ccccc1)C1c2ccccc2Oc2ccccc21 | -4.35
COc1ccc(CCNC(=O)C2CC(=O)N(CCc3ccc(C)cc3)C2)cc1OC (stereo not shown) | -7.35
COc1ccc(/C=C(\NC(=O)c2ccc(C)cc2)C(=O)NCC(=O)O)cc1 | 1.91
CCSc1nc(O)c2cnn(-c3ccc(C)cc3)c2n1 | 1.9
CC(C)CC(C(=O)NCC#N)c1cccc(-c2cccc(-c3ccno3)c2)c1 (stereo not shown) | -4.72
Cc1ccnc(NCn2nnc3ccccc32)c1 | 2.32
C=CCN1C(=O)N/C(=C/c2ccc(-c3cccc(Br)c3)o2)C1=O | -1.17
Cc1ccc(OCc2nc(-c3ccc(C(=O)N4CCC(C)CC4)cc3)oc2C)cc1 | 1.14
CCOC(=O)c1c(C)c(C(=O)NC(C)CCc2ccccc2)c(C)n1C (stereo not shown) | 3.32

Compound | % Inhibition @ 10 uM [%]
COC(=O)/C(C#N)=C/c1c(Oc2ccc(C)cc2C)nc2c(C)cccn2c1=O | -3.23
CCn1c2ccccc2n2cc(-c3ccc4c(c3)OCO4)nc12 | 0.486
CCCC[C@@H](CS(=O)(=O)Nc1ccc(OC)cc1)NC(=O)[C@H](CS(=O)(=O)Cc1ccccc1OC(F)F)NC(=O)N1CCOCC1 | -8.36
CC1CCc2c(sc(NC(=O)c3ccccc3Cl)c2C(=O)NCc2ccco2)C1 (stereo not shown) | -3.98
CC1(C)CC(O)=C/C(=N/CCN2CCNCC2)C1 | -2.8
Oc1c2c(nc3cc(-c4ccccc4)nn13)CCCC2 | -6.7
CSc1ccccc1C(=O)N[C@@H](CC1CCCCC1)C(=O)NCC#N | -0.214
CCOC(=O)c1c(S(=O)(=O)N(CCC(C)C)Cc2ccco2)c(C)n(C)c1C | -5.67
CCCCCCCC(=O)CCCC(=O)Nc1ccc(C(C)=O)cc1 | 0.716
CCN(CC)C(=O)Cn1ncc2c1-c1cc(C)ccc1OC2 | 0.695
CCOC(=O)c1c(NC(=O)CN(C)c2ccccc2)sc2c1CCCC2 | -6.71
COc1ccc(-c2nc(CSc3nncn4c3cc3oc(C)cc34)c(C)o2)cc1OC | 4.4
COc1ccc(N2CCN(Cc3ccc(C(=O)O)cc3)CC2)cc1 | 0.847
O=C(NC(c1ccccc1)n1nnc2ccccc21)c1ccccc1 (stereo not shown) | -5.5
CC(=O)NS(=O)(=O)c1ccc(NC(=O)COc2cc(Cl)c(Cl)cc2Cl)cc1 | -3.09
O=C(Nc1ccccc1)c1ccc(NC(=O)c2cccs2)cc1 | -7.02
COc1ccc(C(O)CCNC(CC(C)C)C(=O)O)cc1 (stereo not shown) | -1.15
Cc1noc(C)c1S(=O)(=O)N1CCN(C(c2ccccc2)c2ccc(Cl)cc2)CC1 (stereo not shown) | -5.37
C=CCn1c(SCC(=O)N2CCc3ccccc3C2)nc2sc(C)c(C)c2c1=O | -5.01
O=C(NC1CCSC1=O)c1ccc(Br)cc1 (stereo not shown) | 2.22
Cc1cc2c(n1-c1ccc(C(=O)NCc3ccco3)cc1)CCC(C)C2 (stereo not shown) | -5.3
CC1(C)CC(=O)C2=C(C1)c1c(ccc3ccccc13)NC2c1cccc([N+](=O)[O-])c1O (stereo not shown) | 4.54
Cc1cccc2sc(NC(=O)c3cncc(Br)c3)nc12 | -3.39
CCOC(=O)c1cc(S(=O)(=O)N2CCN(c3ccccn3)CC2)cn1C | 3.92
Cc1ccc2c(c1)C1CN(C)CCC1N2C(=O)c1cc([N+](=O)[O-])cc([N+](=O)[O-])c1 (stereo not shown) | 7.04
